Assay results: a collection of fitness landscapes (doi:10.1016/j.celrep.2020.107928)
In all, about 81,000 sequences were measured (“one-hybrid fitness for binding NBS DNA”: median about -0.1, highest 2% from about 0.36 on). Some of the results follow.

B1: Caulobacter ParB omega fusion; a variant is named by its letters at X, in order, B8GW30 (parent)
chain: MESVVVGEPGMSEGRRGLGRGLSALLGEVDAAPAQAPGEQLGGSREAPIEILQRNPDQPRRTFREEDLEDLSNSIREKGVLQPILVRPSPDTAGEYQIVAGERAWRAAQRAGLKTVPIMVRELDDLAVLEIGIIENVQRADLNVLEEALSYKVLMEKFERTQENIAQTIGKSXSHVANXMRLLXLPDEVQSYLVSGELTAXHARAIAAAADPVALAKQIIEGGLSVRETEALARKAPNLSAGKSKGGRPPRVKDTDTQALESDLSSVLGLDVSIDHRGSTGTLTITYATLEQLDDLCNRLTRGI

Variants of: B1
Assay: one-hybrid fitness for binding NBS DNA (the Noc-binding site; scaled: cognate 1, non-cognate 0); higher = stronger binding
Details: with NBS DNA site
Procedure, shortened: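 Bacterial one-hybrid selection in E. coli USO rpoZ- hisB- pyrF- with a HIS3 reporter carrying the site 19 bp from the promoter, screening Caulobacter ParB libraries with four specificity codons randomised (NNS). Cells grew 48 hours at 37°C on M9-minus-histidine plus 0.1 mM IPTG and 5 mM 3-AT. Plasmids before and after selection were Illumina-sequenced, three replicate libraries pooled, and variants under 10 reads dropped. Fitness is the log change in variant-to-wild-type read ratio, rescaled to cognate 1, non-cognate 0.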

| Variant | one-hybrid fitness for binding NBS DNA |
| --- | --- |
| QAYA | 0.249 |
| VNTL | ≤ 0.2 |
| ATDE | ≤ 0.2 |
| DNWT | ≤ 0.2 |
| MCMC | ≤ 0.2 |
| PNWY | ≤ 0.2 |
| CRST | 0.202 |
| HNVV | ≤ 0.2 |
| YESM | ≤ 0.2 |
| QESW | ≤ 0.2 |
| TGRS | ≤ 0.2 |
| QRFK | 0.295 |
| RCTS | 0.516 |
| LFQR | ≤ 0.2 |
| NSHY | ≤ 0.2 |
| YMAS | ≤ 0.2 |
| QLKY | 0.46 |
| SMIE | ≤ 0.2 |
| KKNG | ≤ 0.2 |
| FPPL | ≤ 0.2 |
| YLRL | ≤ 0.2 |
| AVVV | ≤ 0.2 |
| SYKM | ≤ 0.2 |
| TYRV | ≤ 0.2 |

| Variant | one-hybrid fitness for binding NBS DNA |
| --- | --- |
| VCVM | ≤ 0.2 |
| YGAR | ≤ 0.2 |
| RGTC | ≤ 0.2 |
| IKLT | ≤ 0.2 |
| LSWD | ≤ 0.2 |
| RWHE | ≤ 0.2 |
| YPQS | ≤ 0.2 |
| HVPF | ≤ 0.2 |
| ASGI | ≤ 0.2 |
| MAHC | ≤ 0.2 |
| TTPR | ≤ 0.2 |
| RAPA | ≤ 0.2 |
| ELMV | ≤ 0.2 |
| GPAG | ≤ 0.2 |
| QISR | 0.386 |
| PRPA | ≤ 0.2 |
| DLAK | ≤ 0.2 |
| EECS | ≤ 0.2 |
| MHLS | ≤ 0.2 |
| MLLE | ≤ 0.2 |
| FRKS | ≤ 0.2 |
| PHFT | ≤ 0.2 |
| KTFY | ≤ 0.2 |
| HATT | ≤ 0.2 |

| Variant | one-hybrid fitness for binding NBS DNA |
| --- | --- |
| YWPT | ≤ 0.2 |
| VYAA | ≤ 0.2 |
| RPWV | ≤ 0.2 |
| DYAR | ≤ 0.2 |
| SAAH | ≤ 0.2 |
| CSNE | ≤ 0.2 |
| PKTP | ≤ 0.2 |
| MNTR | ≤ 0.2 |
| TPAK | ≤ 0.2 |
| NKHW | ≤ 0.2 |
| RGAP | ≤ 0.2 |
| TRDH | ≤ 0.2 |
| TIKY | ≤ 0.2 |
| QELR | ≤ 0.2 |
| SSKD | ≤ 0.2 |
| RAVQ | ≤ 0.2 |
| RRAP | ≤ 0.2 |
| QLFC | ≤ 0.2 |
| TVHW | ≤ 0.2 |
| QVVL | ≤ 0.2 |
| ICPF | ≤ 0.2 |
| HDTS | ≤ 0.2 |
| TITG | ≤ 0.2 |
| NNRI | ≤ 0.2 |

| Variant | one-hybrid fitness for binding NBS DNA |
| --- | --- |
| LSLE | ≤ 0.2 |
| WLHP | ≤ 0.2 |
| HSRR | ≤ 0.2 |
| CSRY | ≤ 0.2 |
| PSPR | ≤ 0.2 |
| SHLA | ≤ 0.2 |
| SSSS | ≤ 0.2 |
| LCIG | ≤ 0.2 |
| PVPL | ≤ 0.2 |
| RTQG | ≤ 0.2 |
| WFAK | ≤ 0.2 |
| QQCK | ≤ 0.2 |
| QMHC | ≤ 0.2 |
| NAAT | ≤ 0.2 |
| ISDR | ≤ 0.2 |
| ADTC | ≤ 0.2 |
| RAVV | ≤ 0.2 |
| GERV | ≤ 0.2 |
| PTLC | ≤ 0.2 |
| DKSG | ≤ 0.2 |
| LIKA | ≤ 0.2 |
| STWY | ≤ 0.2 |
| YLNM | ≤ 0.2 |
| AMFR | ≤ 0.2 |

| Variant | one-hybrid fitness for binding NBS DNA |
| --- | --- |
| YVSP | ≤ 0.2 |
| THRR | 0.239 |
| LERN | ≤ 0.2 |
| RKKL | ≤ 0.2 |
| TWNT | ≤ 0.2 |
| MMTC | ≤ 0.2 |
| PTKI | ≤ 0.2 |
| WSCS | ≤ 0.2 |
| CKCS | ≤ 0.2 |
| TWCD | ≤ 0.2 |
| MLKR | ≤ 0.2 |
| KVGN | ≤ 0.2 |
| STVA | ≤ 0.2 |
| EMHC | ≤ 0.2 |
| HPGV | ≤ 0.2 |
| VWMW | ≤ 0.2 |
| ARPV | ≤ 0.2 |
| TYRM | ≤ 0.2 |
| PPCG | ≤ 0.2 |
| VQYR | ≤ 0.2 |
| LDHR | ≤ 0.2 |
| WIQR | ≤ 0.2 |
| ALYY | ≤ 0.2 |
| QSFT | 0.315 |

| Variant | one-hybrid fitness for binding NBS DNA |
| --- | --- |
| PTIC | ≤ 0.2 |
| FYRS | ≤ 0.2 |
| RAPS | ≤ 0.2 |
| PHRP | ≤ 0.2 |
| RPIS | ≤ 0.2 |
| MHQW | ≤ 0.2 |
| KFNE | ≤ 0.2 |
| YCPS | ≤ 0.2 |
| KLIS | ≤ 0.2 |
| GGTC | ≤ 0.2 |
| RQNL | ≤ 0.2 |
| PYYW | ≤ 0.2 |
| HPNG | ≤ 0.2 |
| TMRV | ≤ 0.2 |
| GMRQ | ≤ 0.2 |
| RIYQ | ≤ 0.2 |
| PPFT | ≤ 0.2 |
| DPRG | ≤ 0.2 |
| ERNT | ≤ 0.2 |
| HQPR | ≤ 0.2 |
| MRMR | ≤ 0.2 |
| LHRT | ≤ 0.2 |
| KMQT | ≤ 0.2 |
| PRSD | ≤ 0.2 |

| Variant | one-hybrid fitness for binding NBS DNA |
| --- | --- |
| VVDT | ≤ 0.2 |
| VHRC | ≤ 0.2 |
| ATTH | ≤ 0.2 |
| VRIR | ≤ 0.2 |
| NRRL | ≤ 0.2 |
| DRGL | ≤ 0.2 |
| AHNR | ≤ 0.2 |
| TLTG | ≤ 0.2 |
| VANE | ≤ 0.2 |
| KWPS | ≤ 0.2 |
| ATYS | ≤ 0.2 |
| WARV | ≤ 0.2 |
| RYHV | ≤ 0.2 |
| YWSS | ≤ 0.2 |
| MSRR | ≤ 0.2 |
| FGVT | ≤ 0.2 |
| SNKG | ≤ 0.2 |
| SHCH | ≤ 0.2 |
| PTSK | ≤ 0.2 |
| IDNV | ≤ 0.2 |
| NQVL | ≤ 0.2 |
| RHTQ | ≤ 0.2 |
| NVAL | ≤ 0.2 |
| ATLH | ≤ 0.2 |

| Variant | one-hybrid fitness for binding NBS DNA |
| --- | --- |
| PKET | ≤ 0.2 |
| QMSP | ≤ 0.2 |
| YTAP | ≤ 0.2 |
| SRNL | ≤ 0.2 |
| FTTT | ≤ 0.2 |
| SIQS | ≤ 0.2 |
| WMMT | ≤ 0.2 |
| GPVS | ≤ 0.2 |
| GYKD | ≤ 0.2 |
| LWIL | ≤ 0.2 |
| HTRT | ≤ 0.2 |
| DWTR | ≤ 0.2 |
| QEVN | ≤ 0.2 |
| DDQS | ≤ 0.2 |
| FMKM | ≤ 0.2 |
| NWKS | ≤ 0.2 |
| WFMS | ≤ 0.2 |
| PGVS | ≤ 0.2 |
| TSHM | ≤ 0.2 |
| QWVG | ≤ 0.2 |
| PPLF | ≤ 0.2 |
| DLDT | ≤ 0.2 |
| VNVW | ≤ 0.2 |
| EDYG | ≤ 0.2 |

| Variant | one-hybrid fitness for binding NBS DNA |
| --- | --- |
| QMTM | ≤ 0.2 |
| VTEF | ≤ 0.2 |
| GLGY | ≤ 0.2 |
| LISY | ≤ 0.2 |
| APEY | ≤ 0.2 |
| QQRY | 0.597 |
| QYLK | ≤ 0.2 |
| RSML | ≤ 0.2 |
| CVRL | ≤ 0.2 |
| PAII | ≤ 0.2 |
| RYHL | ≤ 0.2 |
| LSSN | ≤ 0.2 |
| DSQF | ≤ 0.2 |
| STAE | ≤ 0.2 |
| HLVR | ≤ 0.2 |
| HQCG | ≤ 0.2 |
| DFRS | ≤ 0.2 |
| TMHI | ≤ 0.2 |
| TCLW | ≤ 0.2 |
| AEKR | 0.261 |
| SWLM | ≤ 0.2 |
| YFNC | ≤ 0.2 |
| NFAS | ≤ 0.2 |
| DPDR | ≤ 0.2 |

| Variant | one-hybrid fitness for binding NBS DNA |
| --- | --- |
| LNNP | ≤ 0.2 |
| YYHM | ≤ 0.2 |
| VEGT | ≤ 0.2 |
| NSAC | ≤ 0.2 |
| TTVQ | ≤ 0.2 |
| MVGT | ≤ 0.2 |
| AGAC | ≤ 0.2 |
| VLSK | ≤ 0.2 |
| RAFI | ≤ 0.2 |
| QQPD | ≤ 0.2 |
| QNWE | ≤ 0.2 |
| SFRE | ≤ 0.2 |
| RGKL | ≤ 0.2 |
| PCQG | ≤ 0.2 |
| YPPI | ≤ 0.2 |
| HMQR | ≤ 0.2 |
| LSVC | ≤ 0.2 |
| CFNW | ≤ 0.2 |
| KVIA | ≤ 0.2 |
| QQNF | ≤ 0.2 |
| HFST | ≤ 0.2 |
| PNRT | ≤ 0.2 |
| HVSS | ≤ 0.2 |
| VWFG | ≤ 0.2 |

| Variant | one-hybrid fitness for binding NBS DNA |
| --- | --- |
| RVVT | 0.261 |
| SMEG | ≤ 0.2 |
| HVST | ≤ 0.2 |
| TRVS | ≤ 0.2 |
| ELTV | ≤ 0.2 |
| YSRK | ≤ 0.2 |
| YMIT | ≤ 0.2 |
| INNF | ≤ 0.2 |
| CPLP | ≤ 0.2 |
| VVKM | ≤ 0.2 |
| WNAS | ≤ 0.2 |
| TPVY | ≤ 0.2 |
| AQLC | ≤ 0.2 |
| SPRG | ≤ 0.2 |
| RANN | ≤ 0.2 |
| PPIM | ≤ 0.2 |
| PAQL | ≤ 0.2 |
| MVHM | ≤ 0.2 |
| ADES | ≤ 0.2 |
| KVDS | ≤ 0.2 |
| RMLF | ≤ 0.2 |
| IAAA | ≤ 0.2 |
| NGEW | ≤ 0.2 |
| LQIV | ≤ 0.2 |

| Variant | one-hybrid fitness for binding NBS DNA |
| --- | --- |
| DTLD | ≤ 0.2 |
| LQCL | ≤ 0.2 |
| KIRR | 0.269 |
| QKLH | 0.246 |
| VHSG | ≤ 0.2 |
| GAHD | ≤ 0.2 |
| MVPS | ≤ 0.2 |
| VLTK | ≤ 0.2 |
| GKQS | ≤ 0.2 |
| GYKR | 0.205 |
| GNSS | ≤ 0.2 |
| GSGV | ≤ 0.2 |
| CSQT | ≤ 0.2 |
| FFHS | ≤ 0.2 |
| HDIR | ≤ 0.2 |
| NPSE | ≤ 0.2 |
| FYPD | ≤ 0.2 |
| IWRC | ≤ 0.2 |
| TSYN | ≤ 0.2 |
| RSSI | ≤ 0.2 |
| RYLA | ≤ 0.2 |
| RTTP | ≤ 0.2 |
| DFTF | ≤ 0.2 |
| DPSS | ≤ 0.2 |

| Variant | one-hybrid fitness for binding NBS DNA |
| --- | --- |
| GAIG | ≤ 0.2 |
| VTCC | ≤ 0.2 |
| IYNQ | ≤ 0.2 |
| TYHV | ≤ 0.2 |
| MHCE | ≤ 0.2 |
| KALM | ≤ 0.2 |
| YVMC | ≤ 0.2 |
| ISMC | ≤ 0.2 |
| HQVR | ≤ 0.2 |
| HDQN | ≤ 0.2 |
| NGQS | ≤ 0.2 |
| LMIA | ≤ 0.2 |
| QNAT | ≤ 0.2 |
| LLAL | ≤ 0.2 |
| DFAR | ≤ 0.2 |
| ATDY | ≤ 0.2 |
| TLNW | ≤ 0.2 |
| RISG | ≤ 0.2 |
